This is an account of results in article PMC4336329 (PLoS ONE, 2015).

The campaign covered roughly 310,000 compounds. About 2,200 (0.71%) showed an effect of 50% or more. The effect is printed as a negative number. This is one part of the list.

For the test, the target named is human ether-à-go-go-related gene (hERG) potassium channel (human, UniProt Q12809). The test is described as follows: primary screen, population patch clamp on CHO cells stably expressing hERG.
Sequence of human ether-à-go-go-related gene (hERG) potassium channel (Q12809 whole entry, looked up): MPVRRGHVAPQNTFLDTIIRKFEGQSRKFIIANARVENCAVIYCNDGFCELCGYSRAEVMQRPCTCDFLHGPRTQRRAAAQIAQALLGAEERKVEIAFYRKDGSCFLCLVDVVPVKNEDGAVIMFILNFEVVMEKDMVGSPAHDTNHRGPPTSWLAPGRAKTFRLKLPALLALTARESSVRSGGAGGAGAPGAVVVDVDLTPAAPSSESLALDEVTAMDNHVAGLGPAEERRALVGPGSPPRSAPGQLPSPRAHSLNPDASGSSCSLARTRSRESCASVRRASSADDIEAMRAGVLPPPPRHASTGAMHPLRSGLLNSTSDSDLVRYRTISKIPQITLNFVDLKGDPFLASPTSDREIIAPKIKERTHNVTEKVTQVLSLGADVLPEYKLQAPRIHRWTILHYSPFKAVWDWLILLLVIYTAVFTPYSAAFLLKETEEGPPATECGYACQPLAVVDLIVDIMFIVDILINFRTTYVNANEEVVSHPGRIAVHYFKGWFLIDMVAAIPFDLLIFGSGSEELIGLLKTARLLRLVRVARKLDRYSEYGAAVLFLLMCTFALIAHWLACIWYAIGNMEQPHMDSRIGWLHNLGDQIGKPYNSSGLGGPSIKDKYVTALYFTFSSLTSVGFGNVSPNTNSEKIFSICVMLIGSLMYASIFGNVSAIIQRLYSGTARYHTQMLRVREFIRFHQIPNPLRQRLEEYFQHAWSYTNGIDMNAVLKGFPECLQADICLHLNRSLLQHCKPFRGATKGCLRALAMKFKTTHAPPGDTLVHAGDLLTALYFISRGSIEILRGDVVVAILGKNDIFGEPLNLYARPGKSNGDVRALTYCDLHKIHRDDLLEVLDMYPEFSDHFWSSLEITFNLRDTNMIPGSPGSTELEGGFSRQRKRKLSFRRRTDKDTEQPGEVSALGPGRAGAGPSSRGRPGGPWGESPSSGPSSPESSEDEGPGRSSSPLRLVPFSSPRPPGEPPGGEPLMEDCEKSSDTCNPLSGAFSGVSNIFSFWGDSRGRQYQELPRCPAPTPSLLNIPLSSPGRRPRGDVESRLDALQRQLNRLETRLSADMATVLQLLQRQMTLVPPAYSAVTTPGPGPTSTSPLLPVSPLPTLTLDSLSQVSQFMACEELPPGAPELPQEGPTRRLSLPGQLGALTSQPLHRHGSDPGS
`Cc1ccc(NC(=S)NNc2ccc(C(=O)O)cc2[N+](=O)[O-])cc1C`: the “hERG current change (%, negative = inhibition) at 1uM” value is reported as 13.5%.

With `CCOC(=O)N1CCN(C(=O)c2ccc(CNS(=O)(=O)c3ccc(NC(C)=O)cc3)cc2)CC1`, the “hERG current change (%, negative = inhibition) at 1uM” value is on record as 12%.

In the case of `COc1ccccc1CNC(=O)CS(=O)Cc1nc(-c2ccccc2C)oc1C` (centres unmarked), the “hERG current change (%, negative = inhibition) at 1uM” value was found to be 11.4%.

In the case of `O=C(C1CCCN(S(=O)(=O)c2cccs2)C1)N1CCC(N2CCCCC2)CC1` (centres unmarked), the “hERG current change (%, negative = inhibition) at 1uM” value is reported as -34.9%.

With `COc1ccccc1C(=O)N/C(=C\c1cn(S(=O)(=O)N(C)C)c2ccccc12)C(=O)N1CCCCC1`, the “hERG current change (%, negative = inhibition) at 1uM” value came out at 13%.

In the case of `CCN(CC)S(=O)(=O)c1ccc(C(=O)Nc2ccc(OCC(=O)N3CCOCC3)cc2)cc1`, the “hERG current change (%, negative = inhibition) at 1uM” value was 11.1%.

`CC(=O)c1ccc(NC(=S)N(CCCN(C)C)Cc2ccccc2)cc1`: the “hERG current change (%, negative = inhibition) at 1uM” value is listed as -23%.

Turning to `COc1cc(NC(=O)c2ccc(-c3cccc([N+](=O)[O-])c3)o2)ccc1NC(=O)C(C)C`, the “hERG current change (%, negative = inhibition) at 1uM” value turned out to be 14%.

With `COC(=O)c1c(NC(=O)Cn2cc([N+](=O)[O-])cn2)sc2c1CCC2`, the “hERG current change (%, negative = inhibition) at 1uM” value is on record as 12.3%.

With `NC(=O)CSc1nnc(-c2ccccc2F)n1C1CC1`, the “hERG current change (%, negative = inhibition) at 1uM” value amounted to 13%.

In the case of `CCCSC1=C(C#N)C(c2ccc(O)c(OC)c2)CC(=O)N1` (centres unmarked), the “hERG current change (%, negative = inhibition) at 1uM” value came out at 3.36%.

Take `CC(=O)N[C@H]1C[C@@H]1c1ccccc1`: the “hERG current change (%, negative = inhibition) at 1uM” value is reported as -4.54%.

Turning to `C[C@H](NC(=O)C1CCC(CNC(=O)[C@@H]2CCCN2C(=O)OC(C)(C)C)CC1)C(=O)O` (some centres unmarked), the “hERG current change (%, negative = inhibition) at 1uM” value amounted to 4.05%.

Consider `CNCCCc1[nH]nc(N)c1C#N`, for which the “hERG current change (%, negative = inhibition) at 1uM” value turned out to be 13.2%.

For `COc1cc(OC)c(C2C(C(=O)Nc3ccccc3)=C(C)Nc3ncnn32)cc1OC` (centres unmarked), the “hERG current change (%, negative = inhibition) at 1uM” value came out at 1.27%.

`Cc1ccc2c(c1)N(CC(=O)NC1CCCC1)C(=O)CO2`: the “hERG current change (%, negative = inhibition) at 1uM” value was 14.6%.

On to `Cc1nn(CC(=O)NCCCN2CCN(Cc3ccccc3)CC2)c(=O)c2cc(-c3ccccc3)nn12`, for which the “hERG current change (%, negative = inhibition) at 1uM” value was -10%.

Regarding `CCC(Oc1ccccc1)C(=O)Nc1ccccc1OC` (centres unmarked), the “hERG current change (%, negative = inhibition) at 1uM” value amounted to 14.1%.

For `Cc1ccc(C(=O)N2CCN(S(=O)(=O)c3ccccc3)CC2)s1`, the “hERG current change (%, negative = inhibition) at 1uM” value was 6.3%.

As to `CC(O)CNc1cc(N)c([N+](=O)[O-])cc1[N+](=O)[O-]` (centres unmarked), the “hERG current change (%, negative = inhibition) at 1uM” value was 4.77%.

Regarding `O=C(CCC(=O)c1cccs1)NCC(c1ccc(F)cc1)N1CCOCC1` (centres unmarked), the “hERG current change (%, negative = inhibition) at 1uM” value is 8.37%.

As for `C=CCOc1ccc(/C=C2\SC(=S)N(N3CCOCC3)C2=O)cc1`, the “hERG current change (%, negative = inhibition) at 1uM” value is recorded as 17%.

With `COc1ccc(OCC(=O)NNC(=O)CCc2ccccc2)cc1`, the “hERG current change (%, negative = inhibition) at 1uM” value worked out at 5.69%.

Turning to `O=C(CC1C(=O)NCCN1Cc1cccc(Oc2ccccc2)c1)NCC1CCOCC1` (centres unmarked), the “hERG current change (%, negative = inhibition) at 1uM” value amounted to 12%.

For `CCC(C)(C)NC(=O)Cc1ccc(C)cc1`, the “hERG current change (%, negative = inhibition) at 1uM” value worked out at 0.522%.

For `COc1ccc2[nH]c(=O)c(CN(Cc3cccnc3)C(=O)Nc3ccccc3)cc2c1`, the “hERG current change (%, negative = inhibition) at 1uM” value is given as -6.04%.

Consider `CCOC(=O)c1[nH]c2ccc(C(=O)OC)cc2c1C(=O)OCC`, for which the “hERG current change (%, negative = inhibition) at 1uM” value is 15%.

For the molecule `CCS(=O)(=O)NCCCc1ccccc1`, the “hERG current change (%, negative = inhibition) at 1uM” value is listed as -5.33%.

Consider `COc1ccc(N(CC(=O)Nc2cccc(C)c2)S(=O)(=O)c2ccc(C)cc2)cc1OC`, for which the “hERG current change (%, negative = inhibition) at 1uM” value was found to be 14.7%.

On to `C=CCOc1cccc(C(=O)N2CCCC(CNS(=O)(=O)c3cccs3)C2)c1` (centres unmarked), for which the “hERG current change (%, negative = inhibition) at 1uM” value came out at 7.55%.

As for `CCOC(=O)c1ccc(-n2c(-c3ccco3)nc3ccccc3c2=O)cc1`, the “hERG current change (%, negative = inhibition) at 1uM” value amounted to 12%.

Turning to `O=C1c2ccccc2C(=O)N1CCC1=CCCCC1`, the “hERG current change (%, negative = inhibition) at 1uM” value was 10.7%.

`O=C(CNC(=O)[C@@H]1Cc2ccccc2CN1)Nc1ccc2c(c1)OCO2`: the “hERG current change (%, negative = inhibition) at 1uM” value worked out at 22%.

Take `CN(CCC#N)C(=S)Nc1ccc(Oc2ccccc2)cc1`: the “hERG current change (%, negative = inhibition) at 1uM” value is reported as -7.19%.

Consider `CCOc1ccc(CN2CCN(Cc3ccsc3)C(CCO)C2)cc1CO` (centres unmarked), for which the “hERG current change (%, negative = inhibition) at 1uM” value is -17.3%.

As for `CCc1nnc(NC(=O)CCC(=O)O)s1`, the “hERG current change (%, negative = inhibition) at 1uM” value is given as 9.24%.

As to `C/C(=N\N1C(=O)c2ccccc2C1=O)c1cccc([N+](=O)[O-])c1`, the “hERG current change (%, negative = inhibition) at 1uM” value is on record as 15.6%.

With `CSc1nc(C)cc(OCC(=O)N/N=C/c2ccccc2O)n1`, the “hERG current change (%, negative = inhibition) at 1uM” value is given as 13.5%.

On to `CCOc1cc(NC(=S)NCCCN2CCOCC2)c(OCC)cc1NC(=O)C1CCCCC1`, for which the “hERG current change (%, negative = inhibition) at 1uM” value was 2.06%.

As to `COC/C=C/C1=CC2=CC(=O)C(C)(OC(=O)c3cnc4ccccc4n3)C(=O)C2=CN1CCc1c[nH]c2ccccc12` (centres unmarked), the “hERG current change (%, negative = inhibition) at 1uM” value was found to be 17.1%.

With `Cc1cc(NC(=O)C2CCCC2)nc2c1c(=O)oc1ccccc12`, the “hERG current change (%, negative = inhibition) at 1uM” value is listed as 13.6%.

For the molecule `CC(=O)c1sc(NC(=O)c2c(F)cccc2F)nc1C`, the “hERG current change (%, negative = inhibition) at 1uM” value is 10.3%.

`CN1CCN(S(=O)(=O)c2cccc(C(=O)Nc3sccc3C#N)c2)CC1`: the “hERG current change (%, negative = inhibition) at 1uM” value is 10.5%.

Consider `Cc1noc(C(=O)Nc2ccccc2C(F)(F)F)c1Cl`, for which the “hERG current change (%, negative = inhibition) at 1uM” value turned out to be 8.55%.

Consider `Fc1ccc(CNn2cnnc2SCc2ccc(F)cc2)cc1`, for which the “hERG current change (%, negative = inhibition) at 1uM” value is recorded as -6.12%.

As to `O=C(Nc1ccc2c(c1)OCO2)C1CCN(Cc2cc3c(cc2O)OCO3)CC1`, the “hERG current change (%, negative = inhibition) at 1uM” value stood at 2.07%.

For the molecule `CCCCn1c(N)c(N(CCOC)C(=O)CN2C(=O)c3ccccc3C2=O)c(=O)[nH]c1=O`, the “hERG current change (%, negative = inhibition) at 1uM” value was 4.67%.

On to `O=C(NC(=S)Nc1ccc(S(=O)(=O)Nc2nccs2)cc1)C1CC1`, for which the “hERG current change (%, negative = inhibition) at 1uM” value turned out to be 21.5%.

On to `O=C1NC(=O)N(c2ccc3c(c2)OCO3)C(=O)/C1=C/c1ccc(N2CCCCC2)o1`, for which the “hERG current change (%, negative = inhibition) at 1uM” value was determined as 19.1%.

On to `Cc1ccc(C)c(Cn2c(CN(C)Cc3ccccc3)nc3c2c(=O)n(C)c(=O)n3C)c1`, for which the “hERG current change (%, negative = inhibition) at 1uM” value was -3.01%.

For `O=C(CSc1nnc(COc2ccc3c(c2)CCCC3)o1)Nc1ccc(F)cc1`, the “hERG current change (%, negative = inhibition) at 1uM” value is reported as 16.1%.

In the case of `Nc1nonc1C(=O)NCCNC(=O)c1ccc(Cl)c(Cl)c1`, the “hERG current change (%, negative = inhibition) at 1uM” value was found to be 8.82%.

Regarding `CC(=O)N1CCN(C(=O)c2cc(S(=O)(=O)N3CCCCC3)ccc2Cl)CC1`, the “hERG current change (%, negative = inhibition) at 1uM” value was determined as 9.05%.

With `C=CCSc1ncc(CO)n1Cc1ccccc1`, the “hERG current change (%, negative = inhibition) at 1uM” value turned out to be 2.1%.

For `COCCCC1CCN(C(=O)C2CCC(=O)N(Cc3cccc(F)c3)C2)CC1` (centres unmarked), the “hERG current change (%, negative = inhibition) at 1uM” value turned out to be 10.3%.

As to `N=c1c(C(=O)NC2CCCC2)cc2c(=O)n3ccccc3nc2n1CCN1CCOCC1`, the “hERG current change (%, negative = inhibition) at 1uM” value is on record as -94.2%.
